Experimental data published in the supplement of paper PMC11369174, “Proteome-scale characterisation of motif-based interactome rewiring by disease mutations” (Molecular Systems Biology, 2024).
Some of the results follow. Read counts after selection give these values, which scatter widely.

T1: AHNAK2_PDZ__Q8IVF2_108_193
T1 chain: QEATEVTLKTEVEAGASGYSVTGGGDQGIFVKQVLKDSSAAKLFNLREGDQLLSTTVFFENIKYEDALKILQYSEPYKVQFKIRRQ

B1: FOXG1 72-87 mut P55316.P82Q (peptide)
chain: QQPPPPPPPAQQPPQT
B2: KCNC3 36-51 mut Q14003.Q41H (peptide)
chain: LPPQQHQPAQPGPAAS
B3: CHCHD10 12-27 wt (peptide)
chain: PASRPAAPSAHPPAHP
B4: NKX2-5 56-71 mut P52952.L69P (peptide)
chain: YAGPEAAAPGLPEPRA
B5: NR5A1 126-141 wt (peptide)
chain: MGVPPPPPPAPDYVLP
B6: IKBKG 392-407 wt (peptide)
chain: PPDFAAPKAQYQAPDM
B7: FOXC1 288-303 wt (peptide)
chain: ADSAPPPPAPSAPPPH
B8: NR5A1 118-133 wt (peptide)
chain: FKLETGPPMGVPPPPP
B9: STAC2 72-87 wt (peptide)
chain: TPLPPPSPPPTASDRG
B10: CHCHD10 24-39 mut Q8WYQ3.P34S (peptide)
chain: PAHPPPSAAASAPAPS
B11: TSC1 388-403 mut Q92574.S403L (peptide)
chain: LGTPATSPPPAPLAHL
B12: TP53 72-87 mut P04637.P82L (peptide)
chain: PVAPAPAAPTLAAPAP
B13: CYBA 149-164 wt (peptide)
chain: KQPPSNPPPRPPAEAR
B14: NR5A1 126-141 mut Q13285.P129L (peptide)
chain: MGVLPPPPPAPDYVLP
B15: TNFRSF13C 155-170 mut Q96RJ3.H159Y (peptide)
chain: TPPGYSVPVPATELGS
B16: COLQ 49-64 wt (peptide)
chain: KAAALLTPPPPPLFPP
B17: EGR2 204-219 wt (peptide)
chain: PPPSYPSPKPATDPGL
B18: PAX6 341-356 mut P26367.S353A (peptide)
chain: LPMQPPVPSQTSAYSA
B19: PAX6 341-356 wt (peptide)
chain: LPMQPPVPSQTSSYSA
B20: MSX1 148-163 mut P28360.R157S (peptide)
chain: SPRFSPPPASRLSPPA
B21: ANXA11 28-43 mut P50995.G38R (peptide)
chain: YPPPPSMPPIRLDNVA
B22: NKX2-5 56-71 mut P52952.A61V (peptide)
chain: YAGPEVAAPGLPELRA
B23: NR5A1 118-133 mut Q13285.G123E (peptide)
chain: FKLETEPPMGVPPPPP
B24: NR5A1 118-133 mut Q13285.P131L (peptide)
chain: FKLETGPPMGVPPLPP
B25: NR5A1 122-137 mut Q13285.G123E (peptide)
chain: TEPPMGVPPPPPPAPD
B26: NR5A1 122-137 wt (peptide)
chain: TGPPMGVPPPPPPAPD
B27: SMN1 239-254 wt (peptide)
chain: GPPIIPPPPPIAPDSL
B28: MARVELD2 44-59 mut Q8N4S9.P59L (peptide)
chain: DPLPPPPLPLQPPFGL
B29: MARVELD2 44-59 wt (peptide)
chain: DPLPPPPLPLQPPFGP
B30: MARVELD2 48-63 mut Q8N4S9.P59L (peptide)
chain: PPPLPLQPPFGLDFYS
B31: MARVELD2 48-63 wt (peptide)
chain: PPPLPLQPPFGPDFYS
B32: NANOS1 264-279 mut Q8WY41.R276Y (peptide)
chain: YAPLSKVPPPPAYPPP
B33: CHCHD10 24-39 wt (peptide)
chain: PAHPPPSAAAPAPAPS
B34: PTPN22 612-627 wt (peptide)
chain: EIPPPLPVRTPESFIV
B35: PTPN22 612-627 mut Q9Y2R2.R620W (peptide)
chain: EIPPPLPVWTPESFIV
B36: IKBKG 392-407 mut Q9Y6K9.M407V (peptide)
chain: PPDFAAPKAQYQAPDV
B37: IKBKG 392-407 mut Q9Y6K9.D406V (peptide)
chain: PPDFAAPKAQYQAPVM
B38: TP53 72-87 wt (peptide)
chain: PVAPAPAAPTPAAPAP
B39: EGR2 204-219 mut P11161.T215M (peptide)
chain: PPPSYPSPKPAMDPGL
B40: KIT 953-968 mut P10721.R956W (peptide)
chain: HSVWINSVGSTASSSQ
B41: SMARCA2 1344-1359 mut P51532.P1344S (peptide)
chain: SSWIIKDDAEVERLTA
B42: SMARCA4 1344-1359 mut P51532.P1344S (peptide)
chain: SSWIIKDDAEVERLTA
B43: NDUFS6 72-87 wt (peptide)
chain: IAEQPVSEVETRVIAA
B44: PKP2 476-491 mut Q99959.R490W (peptide)
chain: AHAANPSTLGGQGGWI
B45: NDUFS6 76-91 mut O75380.R83W (peptide)
chain: PVSEVETWVIAADGGG
B46: PKP2 480-495 mut Q99959.R490W (peptide)
chain: NPSTLGGQGGWITRSG
B47: NDUFS6 72-87 mut O75380.R83W (peptide)
chain: IAEQPVSEVETWVIAA
B48: CTNND2 224-239 wt (peptide)
chain: PPPREPFAPSLGSAFH
B49: KCNQ2 619-634 wt (peptide)
chain: MMGRLGKVEKQVLSME
B50: TNNI3 166-181 mut P19429.K174N (peptide)
chain: SLDLRAHLNQVKKEDT
B51: ING3 12-27 wt (peptide)
chain: EQLPMDLRDRFTEMRE

What follows are binders tested against ABL1_SH3__P00519_60_121 (assay: mean normalised NGS count of phage-displayed peptide after selection on bait (% of reads); baits are purified protein domains named by gene / domain / UniProt id / residues; peptides come from disordered regions of human proteins; higher = stronger enrichment / binding). Conditions: replicate selections in which the peptide was seen: 2.
Chain of ABL1_SH3__P00519_60_121 (chain, as listed by the source): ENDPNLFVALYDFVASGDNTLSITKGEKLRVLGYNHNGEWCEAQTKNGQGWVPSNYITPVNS

| Binder | mean normalised NGS count |
| --- | --- |
| B1 | 0.0427 |
| B2 | 0.00699 |
| B3 | 0.0028 |

The binders below were run against Src_SH3__P12931_87_144 in the same assay as above. Conditions: replicate selections in which the peptide was seen: 2.

| Binder | mean normalised NGS count |
| --- | --- |
| B1 | 0.0137 |

What follows are binders tested against ABL1_SH3__P00519_60_121 in the same assay as above. Conditions: replicate selections in which the peptide was seen: 3.

| Binder | mean normalised NGS count |
| --- | --- |
| B4 | 0.00538 |
| B5 | 0.0223 |
| B6 | 1.41 |

Each binder was assayed against EPS8_SH3_1_Q12929_534_598 (clone: EPS8L1_SH3_1_Q12929_534_598) in the same assay as above. Conditions: replicate selections in which the peptide was seen: 6.

| Binder | mean normalised NGS count |
| --- | --- |
| B5 | 18.9 |
| B14 | 14.8 |

These binders were tested against NCK1_SH3_1_P16333_5_60 in the same assay as above. Conditions: replicate selections in which the peptide was seen: 6.

| Binder | mean normalised NGS count |
| --- | --- |
| B5 | 27 |
| B14 | 38.1 |

These binders were tested against Src_SH3__P12931_87_144 in the same assay as above. Conditions: replicate selections in which the peptide was seen: 4.

| Binder | mean normalised NGS count |
| --- | --- |
| B5 | 0.103 |

These binders were tested against ABL1_SH3__P00519_60_121 in the same assay as above. Conditions: replicate selections in which the peptide was seen: 4.

| Binder | mean normalised NGS count |
| --- | --- |
| B7 | 0.00773 |
| B8 | 1.49 |
| B9 | 0.0194 |
| B10 | 0.0137 |
| B11 | 0.021 |
| B12 | 0.0226 |

The binders below were run against Intersectin-1_SH3_2_Q15811_913_971 in the same assay as above. Conditions: replicate selections in which the peptide was seen: 4.

| Binder | mean normalised NGS count |
| --- | --- |
| B8 | 0.807 |

These binders were tested against ABL1_SH3__P00519_60_121 in the same assay as above. Conditions: replicate selections in which the peptide was seen: 5.

| Binder | mean normalised NGS count |
| --- | --- |
| B13 | 0.36 |
| B14 | 0.131 |
| B15 | 0.359 |
| B16 | 0.0142 |

What follows are binders tested against Src_SH3__P12931_87_144 in the same assay as above. Conditions: replicate selections in which the peptide was seen: 5.

| Binder | mean normalised NGS count |
| --- | --- |
| B14 | 0.163 |

The binders below were run against Intersectin-1_SH3_2_Q15811_913_971 in the same assay as above. Conditions: replicate selections in which the peptide was seen: 2.

| Binder | mean normalised NGS count |
| --- | --- |
| B16 | 0.00827 |
| B24 | 0.078 |

Each binder was assayed against ABL1_SH3__P00519_60_121 in the same assay as above. Conditions: replicate selections in which the peptide was seen: 6.

| Binder | mean normalised NGS count |
| --- | --- |
| B17 | 0.186 |
| B18 | 0.335 |
| B19 | 0.726 |
| B20 | 3.49 |
| B21 | 0.06 |
| B22 | 0.131 |
| B23 | 0.457 |
| B24 | 0.262 |
| B25 | 0.897 |
| B26 | 0.888 |
| B27 | 0.423 |
| B28 | 23.1 |
| B29 | 7.59 |
| B30 | 11.7 |
| B31 | 16.2 |
| B32 | 0.335 |
| B33 | 0.861 |
| B34 | 0.374 |
| B35 | 1.54 |
| B36 | 0.0571 |
| B37 | 2.19 |
| B38 | 3.82 |
| B39 | 2.91 |

These binders were tested against FKBP1A_full-length__P62942_1_108, P62942 in the same assay as above. Conditions: replicate selections in which the peptide was seen: 2.
Chain of FKBP1A_full-length__P62942_1_108, P62942 (P62942 whole entry): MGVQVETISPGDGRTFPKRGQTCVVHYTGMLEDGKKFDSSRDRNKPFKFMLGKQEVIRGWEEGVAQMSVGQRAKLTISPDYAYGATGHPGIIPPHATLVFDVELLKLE

| Binder | mean normalised NGS count |
| --- | --- |
| B21 | 0.109 |

What follows are binders tested against Intersectin-1_SH3_2_Q15811_913_971 in the same assay as above. Conditions: replicate selections in which the peptide was seen: 5.

| Binder | mean normalised NGS count |
| --- | --- |
| B23 | 8.75 |

These binders were tested against NCK1_SH3_1_P16333_5_60 in the same assay as above. Conditions: replicate selections in which the peptide was seen: 4.

| Binder | mean normalised NGS count |
| --- | --- |
| B28 | 0.232 |
| B35 | 0.0841 |

The binders below were run against Src_SH3__P12931_87_144 in the same assay as above. Conditions: replicate selections in which the peptide was seen: 6.

| Binder | mean normalised NGS count |
| --- | --- |
| B28 | 2.21 |
| B29 | 0.672 |
| B34 | 5.16 |

These binders were tested against Intersectin-1_SH3_1_Q15811_740_806 in the same assay as above. Conditions: replicate selections in which the peptide was seen: 6.

| Binder | mean normalised NGS count |
| --- | --- |
| B34 | 3.88 |

What follows are binders tested against Intersectin-1_SH3_3_Q15811_1002_1060 in the same assay as above. Conditions: replicate selections in which the peptide was seen: 6.

| Binder | mean normalised NGS count |
| --- | --- |
| B34 | 0.918 |

These binders were tested against Intersectin-1_SH3_5_Q15811_1155_1214 in the same assay as above. Conditions: replicate selections in which the peptide was seen: 6.

| Binder | mean normalised NGS count |
| --- | --- |
| B34 | 1.83 |

The binders below were run against Src_SH3__P12931_87_144 in the same assay as above. Conditions: replicate selections in which the peptide was seen: 3.

| Binder | mean normalised NGS count |
| --- | --- |
| B35 | 0.0276 |

Target: T1, AHNAK2_PDZ__Q8IVF2_108_193
Experiment: as above
Conditions: replicate selections in which the peptide was seen: 2

| Binder | mean normalised NGS count |
| --- | --- |
| B40 | 0.177 |
| B41 | 0.232 |
| B42 | 0.232 |

Same assay, conditions: replicate selections in which the peptide was seen: 3

| Binder | mean normalised NGS count |
| --- | --- |
| B43 | 0.0334 |

Same assay, conditions: replicate selections in which the peptide was seen: 4

| Binder | mean normalised NGS count |
| --- | --- |
| B44 | 1.43 |

Same assay, conditions: replicate selections in which the peptide was seen: 5

| Binder | mean normalised NGS count |
| --- | --- |
| B45 | 32.4 |
| B46 | 17.9 |

Same assay, conditions: replicate selections in which the peptide was seen: 6

| Binder | mean normalised NGS count |
| --- | --- |
| B47 | 27.8 |

Each binder was assayed against ALYREF_RRM__Q86V81_78_183 in the same assay as above. Conditions: replicate selections in which the peptide was seen: 2.

| Binder | mean normalised NGS count |
| --- | --- |
| B48 | 0.0606 |

Same assay, conditions: replicate selections in which the peptide was seen: 3

| Binder | mean normalised NGS count |
| --- | --- |
| B49 | 0.0519 |
| B50 | 0.0649 |

Same assay, conditions: replicate selections in which the peptide was seen: 4

| Binder | mean normalised NGS count |
| --- | --- |
| B51 | 1.22 |
